The other results are listed elsewhere or left out. The energies were worked out here from pooled read counts, against the library average; single values are noisy.

In the experiment the target is T1, Pho4 (S. cerevisiae) (UniProt P07270).
T1 sequence: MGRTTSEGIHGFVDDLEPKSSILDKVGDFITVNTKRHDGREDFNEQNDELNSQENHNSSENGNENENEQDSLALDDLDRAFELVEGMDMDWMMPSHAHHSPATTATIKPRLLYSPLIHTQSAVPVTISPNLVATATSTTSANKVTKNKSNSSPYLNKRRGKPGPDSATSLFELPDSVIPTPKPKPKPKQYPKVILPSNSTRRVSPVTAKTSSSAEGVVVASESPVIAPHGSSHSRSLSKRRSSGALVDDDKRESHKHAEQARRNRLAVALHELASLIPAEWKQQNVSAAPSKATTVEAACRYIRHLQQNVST
The experiment in a line: relative binding free energy (BET-seq); higher = weaker binding. The following applies: reference: library average.
Turning to TGGTTCACGTGGAGGT, the “relative binding free energy” value amounted to 0.3 kcal/mol.
To CGTGACACGTGGGTGC belongs -0.06 kcal/mol; to GTCTACACGTGATGTG, 0.18 kcal/mol; to GGCCACACGTGGGGGT, -0.06 kcal/mol.
To TTATTCACGTGTGTGC belongs 0.15 kcal/mol.
Next, GCAATCACGTGTGGTT: 0.28 kcal/mol; TTATACACGTGCGGTT: 0.01 kcal/mol.
Regarding TGACGCACGTGGAGGT, the “relative binding free energy” value is -0.16 kcal/mol.
Regarding GGATGCACGTGGCAAG, the “relative binding free energy” value was -0.1 kcal/mol.
Next, CTATGCACGTGTGGCG: -0.02 kcal/mol; TCATTCACGTGGCGGG: 0.19 kcal/mol.
On to GAAGACACGTGCTGGG, for which the “relative binding free energy” value was 0.1 kcal/mol.
To TGTGCCACGTGGACTG belongs -0.02 kcal/mol; to TGAGACACGTGGGTCT, -0.01 kcal/mol.
Next, TAAGCCACGTGTTAGG: -0.09 kcal/mol; ATTAACACGTGGTGGC: -0.03 kcal/mol; TGGCCCACGTGGTTTG: -0.22 kcal/mol.
Turning to TGGTACACGTGCTTTG, the “relative binding free energy” value is -0.03 kcal/mol.
Next, GGGTTCACGTGTAAAA: 0.26 kcal/mol; AGTTGCACGTGTGTGT: 0.03 kcal/mol; TCATACACGTGTGAGG: 0.24 kcal/mol.
TTTCGCACGTGATTTT: the “relative binding free energy” value is 0.11 kcal/mol.
As to TTGTGCACGTGGGCCT, the “relative binding free energy” value was -0.22 kcal/mol.
For the sequence CAAGGCACGTGATGTT, the “relative binding free energy” value was -0.01 kcal/mol.
Next, ATTTGCACGTGTTAAT: 0.06 kcal/mol; GCTGGCACGTGGTGGA: -0.09 kcal/mol; GTAGTCACGTGGTACT: 0.03 kcal/mol.
To TTGTCCACGTGGTTGC belongs 0.1 kcal/mol; to GAAGACACGTGTGGGT, 0.18 kcal/mol; to ACTGACACGTGGGGGG, -0.13 kcal/mol.
To AACTTCACGTGTGGTT belongs 0.23 kcal/mol.
For TTTGTCACGTGGCACG, the “relative binding free energy” value is -0.04 kcal/mol.
To TTTAGCACGTGCTCGT belongs -0.13 kcal/mol.
On to TGATTCACGTGGTTAG, for which the “relative binding free energy” value was found to be 0.31 kcal/mol.
To AGTCTCACGTGCGTGG belongs 0.14 kcal/mol; to TATTGCACGTGCAATG, 0.05 kcal/mol; to ATTTTCACGTGAAGGA, 0.27 kcal/mol.
Next, TATGACACGTGGTGTA: -0.17 kcal/mol; TTTCACACGTGTTTAA: 0.02 kcal/mol.
To TTGACCACGTGTATTT belongs 0.08 kcal/mol.
For the sequence TGGGGCACGTGAATGC, the “relative binding free energy” value was found to be 0.01 kcal/mol.
Take GTGAGCACGTGTTAAA: the “relative binding free energy” value came to 0.12 kcal/mol.
Next, AAGGGCACGTGGGACT: -0.26 kcal/mol; TGTTGCACGTGTGTGA: 0.08 kcal/mol.
To GGGGCCACGTGAGGGT belongs 0.31 kcal/mol.
To AGGTACACGTGGATGT belongs 0.02 kcal/mol; to AAGAACACGTGTTAGT, 0.04 kcal/mol.
For the sequence ATTGCCACGTGGGTAT, the “relative binding free energy” value was -0.16 kcal/mol.
Consider TTGCTCACGTGTGAGG, for which the “relative binding free energy” value was 0.21 kcal/mol.
Next, TGGTGCACGTGACTGG: 0.14 kcal/mol.
To TTGAACACGTGATGTA belongs 0.11 kcal/mol; to TTAGCCACGTGTTTGT, -0.17 kcal/mol.
As for CATATCACGTGGGGAT, the “relative binding free energy” value is -0.06 kcal/mol.
With TGGGGCACGTGCTCAG, the “relative binding free energy” value is -0.12 kcal/mol.
Next, TATTTCACGTGGATGC: 0.2 kcal/mol; CGCGGCACGTGGCTGG: -0.16 kcal/mol.
Take TAATGCACGTGGAAAT: the “relative binding free energy” value was 0.13 kcal/mol.
Regarding TCGTCCACGTGTAGTG, the “relative binding free energy” value was found to be 0.14 kcal/mol.
Next, AAGTACACGTGGTGGG: 0.01 kcal/mol.
To GGTTTCACGTGGGCAA belongs 0.24 kcal/mol; to ATTAACACGTGGTTAT, -0.06 kcal/mol.
On to GTTGTCACGTGAGGAC, for which the “relative binding free energy” value amounted to 0.41 kcal/mol.
As to CAATGCACGTGAGAGG, the “relative binding free energy” value worked out at 0.25 kcal/mol.

(Values after the BET-seq Pho4 binding data (Le et al. 2018).)
